About 2,200 (0.71%) of roughly 310,000 compounds showed an effect of 50% or more. The effect is printed as a negative number. Some of the results follow.
biological target: human ether-à-go-go-related gene (hERG) potassium channel (human, UniProt Q12809); experiment: primary screen, population patch clamp on CHO cells stably expressing hERG
Sequence (Q12809 whole entry, looked up): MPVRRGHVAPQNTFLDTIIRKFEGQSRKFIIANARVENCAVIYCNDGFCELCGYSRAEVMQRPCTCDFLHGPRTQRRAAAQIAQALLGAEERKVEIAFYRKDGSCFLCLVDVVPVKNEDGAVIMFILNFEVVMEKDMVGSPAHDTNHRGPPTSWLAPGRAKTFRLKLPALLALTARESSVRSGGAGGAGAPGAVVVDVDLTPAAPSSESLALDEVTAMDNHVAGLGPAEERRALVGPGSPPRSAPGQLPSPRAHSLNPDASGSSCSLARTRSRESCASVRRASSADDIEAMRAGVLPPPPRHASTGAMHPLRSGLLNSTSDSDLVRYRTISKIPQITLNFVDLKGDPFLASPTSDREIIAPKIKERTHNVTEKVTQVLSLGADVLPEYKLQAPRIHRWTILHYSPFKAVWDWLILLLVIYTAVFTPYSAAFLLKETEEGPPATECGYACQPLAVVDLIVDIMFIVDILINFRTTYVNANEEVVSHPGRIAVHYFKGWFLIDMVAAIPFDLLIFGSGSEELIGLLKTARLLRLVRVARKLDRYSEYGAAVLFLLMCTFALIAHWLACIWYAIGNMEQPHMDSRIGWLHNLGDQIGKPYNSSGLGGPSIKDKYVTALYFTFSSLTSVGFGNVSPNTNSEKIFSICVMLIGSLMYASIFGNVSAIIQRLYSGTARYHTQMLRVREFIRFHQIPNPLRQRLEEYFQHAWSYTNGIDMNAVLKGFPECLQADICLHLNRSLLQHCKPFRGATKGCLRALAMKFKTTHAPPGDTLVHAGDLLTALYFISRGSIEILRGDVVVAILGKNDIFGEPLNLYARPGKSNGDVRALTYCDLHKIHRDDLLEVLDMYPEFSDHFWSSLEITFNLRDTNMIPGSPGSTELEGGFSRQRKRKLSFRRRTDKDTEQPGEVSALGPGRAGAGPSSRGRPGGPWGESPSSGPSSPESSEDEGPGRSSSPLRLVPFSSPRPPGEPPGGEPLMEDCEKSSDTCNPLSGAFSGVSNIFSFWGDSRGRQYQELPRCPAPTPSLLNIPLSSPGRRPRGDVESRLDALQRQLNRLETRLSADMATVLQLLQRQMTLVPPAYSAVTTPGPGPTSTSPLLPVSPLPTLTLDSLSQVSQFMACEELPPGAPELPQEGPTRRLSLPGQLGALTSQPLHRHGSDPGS

| SMILES | hERG current change (%, negative = inhibition) at 1uM |
| --- | --- |
| CCOc1ccc(-c2nc(N)ncc2-c2ccc(Cl)cc2)c(O)c1 | 0.835% |
| COc1ccc(CNC(=O)Cn2cncn2)cc1OC | -12.7% |
| CCc1ccc(-c2cc(C)no2)cc1S(=O)(=O)N1CCN(c2ccccc2F)CC1 | 14.8% |
| c1ccc2c(c1)CCCN2Cc1nnnn1C1CCCC1 | 1.99% |
| O=C(Nc1c(-c2ccccc2)nc2ccccn12)c1ccccc1 | 12.6% |
| Cc1nn2c(=O)cc(CSCC(=O)Nc3ccccc3F)nc2s1 | 11.6% |
| CC(C)COc1cccc(C(=O)N(CC(=O)Nc2ccccc2C(F)(F)F)Cc2ccco2)c1 | 13.7% |
| O=C(c1ccco1)N(Cc1ccco1)Cc1cc2ccccc2[nH]c1=O | 3.63% |
| CCC(C)[C@H](NC(=O)NCc1ccc(OC)c(OC)c1)C(=O)O (some centres unmarked) | 3.45% |
| COc1ccc(NC2=C(Cl)C(=O)N(c3ccccc3)C2=O)c(OC)c1 | 14.3% |
| CC(=O)c1c(C)[nH]c(C(=O)Nc2ccc(C)cn2)c1C | 6.66% |
| CCC(C)N(C(=O)CSc1nnc(-c2ccco2)n1C)C1CCS(=O)(=O)C1 (centres unmarked) | -6.49% |
| Cc1csc(CN(C)C(=O)CC2C(=O)NCCN2Cc2ccc(F)c(F)c2)n1 (centres unmarked) | 14.8% |
| Cc1ccc(S(=O)(=O)NCC(=O)OCC(=O)Nc2ncc(Cl)cc2Cl)cc1 | 19.2% |
| CCCC(=O)Nc1ccc(C(=O)NN2C(=O)c3ccccc3C2=O)cc1 | 7.66% |
| Cc1ccc(SC(C)C(=O)NCc2ccc(F)cc2)cc1 (centres unmarked) | 4.04% |
| CCCCCCNS(=O)(=O)c1ccc(Cl)s1 | -3.54% |
| O=c1c2ccccc2[nH]c(=S)n1CCN1CCc2ccccc2C1 | 1.82% |
| COc1ccc(-c2cc(C)no2)cc1S(=O)(=O)NCc1ccc(OC(C)C)cc1 | 10.6% |

| SMILES | hERG current change (%, negative = inhibition) at 1uM |
| --- | --- |
| CCCC(=O)C1=C(N2CCCCC2)CC(C)(C)C(C(=O)OC)C1=O (centres unmarked) | 16.3% |
| COc1ccccc1-c1csc2ncnc(Sc3nnnn3C)c12 | 14.3% |
| CCOc1ccc(C(=O)N2CCc3cc(OC)c(OC)cc3C2)cc1OCC | 11.2% |
| COc1ccccc1N(C)S(=O)(=O)c1ccc(C(=O)NC2CCCCCC2)cc1 | 8.37% |
| CCSc1nnc(NC(=O)CSc2nncc(=O)n2N)s1 | 15.1% |
| O=C(Nc1ccc(Br)cc1)c1ccc(F)c(S(=O)(=O)N2CCN(c3ccccn3)CC2)c1 | 10.3% |
| Cc1cc(C)cc(NC(=O)Cn2nnc(C(=O)NCc3cccs3)c2N)c1 | 3.25% |
| CCCCCCCC[n+]1cccc(C(=O)N(CC)CC)c1.[Br-] | 12.6% |
| O=C1NC(=O)N(Cc2ccccc2Cl)C(=O)/C1=C/N1CCOCC1 | 2.97% |
| CCCCOC(=O)C1=C(N)OC2=C(C(=O)CCC2)[C@]12C(=O)N(C)c1ccccc12 | 3.97% |
| Cc1c(C)c2ccc(OCC(=O)N(C)C)c(C)c2oc1=O | -3.22% |
| CN1CCN(S(=O)(=O)c2cccc(C(=O)Nc3sc4c(c3C(N)=O)CCCC4)c2)CC1 | -4.51% |
| CCCCn1c(N)c(N(CCC(C)C)C(=O)CC2OC(=O)c3ccccc32)c(=O)[nH]c1=O (centres unmarked) | 6.12% |
| CC(NC(=O)C(C)N1C(=O)C2C3CC(C(Br)C3Br)C2C1=O)c1ccccc1 (centres unmarked) | 6.04% |
| N#Cc1ccccc1NC(=O)C1CC(=O)N(c2ccc3c4c(cccc24)CC3)C1 (centres unmarked) | 8.51% |
| O=C(COc1ccc(S(=O)(=O)NCc2ccccc2)cc1)NCC1CCCO1 (centres unmarked) | 9.55% |
| C=CCSc1nnc(NC(=O)c2cn(CC)c3nc(C)ccc3c2=O)s1 | 2.48% |
| CC1CCCC(C)N1C(=O)CSc1nnc(-c2ccco2)n1C (centres unmarked) | 15.3% |
| COc1ccccc1CNC(=O)c1cc(-c2ccncc2)nc2c(Cl)cccc12 | 9.2% |

| SMILES | hERG current change (%, negative = inhibition) at 1uM |
| --- | --- |
| COc1cc2c(cc1OC)C(c1cccc([N+](=O)[O-])c1)N(C(=O)c1ccccc1C(=O)O)CC2 (centres unmarked) | 15.6% |
| Cn1c(CCN2CCOCC2)nc2cc(NS(=O)(=O)c3ccccc3)ccc21 | 6.09% |
| O=C(COc1cc2oc(=O)cc(-c3ccccc3)c2cc1Cl)NCCN1CCOCC1 | 9.31% |
| CCC(C)(C)C1CCC2(CC1)NC(=O)N(CC(=O)Nc1cc(C(F)(F)F)ccc1N1CCOCC1)C2=O (centres unmarked) | 9.39% |
| Cc1cc2cc(OCc3ccccc3)ccc2n1C | 22.8% |
| NNC(=O)c1sc(-c2ccc(Cl)cc2)cc1N | 6.92% |
| CCOC(=O)C1CCCN(C(=O)CSc2nccn2C)C1 (centres unmarked) | 5.4% |
| Cc1cc(Cl)ccc1N(CC(=O)N=Nc1c(O)[nH]c2ccccc12)S(C)(=O)=O | -0.158% |
| COc1ccc(OC)c(-n2cnc3cc(C(=O)O)ccc32)c1 | 7.48% |
| CC(C)(C)NC(=S)NC1CC1 | 12.9% |
| CC(=O)c1cccc(NC(=O)C2CCCN2S(=O)(=O)c2cccc3cccnc23)c1 (centres unmarked) | 5.45% |
| Cc1sc2c(c1C)C(=O)NC(c1cccc(O)c1)N2 (centres unmarked) | 13.4% |
| CCOCCn1c(=NC(=O)c2cc(Cl)sc2Cl)sc2cc(S(N)(=O)=O)ccc21 | 14.6% |
| CCc1ccc(Oc2nnnn2-c2ccc(C(N)=O)cc2)cc1 | 13.7% |
| O=C(O)c1ccccc1NCc1ccco1 | 14.1% |
| O=C(Cc1ccc(Cl)cc1)NC(=S)Nc1ccccc1N1CCOCC1 | -4.31% |
| CCOc1ccc(S(=O)(=O)N2CCN(c3ccccc3OC)CC2)c2cccnc12 | 3.71% |
| Cc1cccc(C)c1N1CCN(S(=O)(=O)c2ccccc2)CC1 | 8.64% |

Reference: paper PMC4336329 (PLoS ONE, 2015)
